Laboratory results published in article PMC6919601, “Identification of Plasmodium dipeptidyl aminopeptidase allosteric inhibitors by high throughput screening” (PLoS ONE, 2019).
Among all 110,000 compounds or so, about 230 (0.21%) showed an effect of 50% or more. Some of the results follow.

biological target: DPAP1 (Plasmodium falciparum, UniProt Q8IIJ9); assay: primary screen, percent inhibition; read by cleavage of a fluorogenic dipeptide substrate; higher = more effect of the substance; set-up: species or system P. falciparum D10 trophozoite lysates; single well
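Also: 30 min substrate incubation versus DMSO and 10 µM JCP410 controls.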

Sequence of DPAP1 (Q8IIJ9 whole entry, looked up): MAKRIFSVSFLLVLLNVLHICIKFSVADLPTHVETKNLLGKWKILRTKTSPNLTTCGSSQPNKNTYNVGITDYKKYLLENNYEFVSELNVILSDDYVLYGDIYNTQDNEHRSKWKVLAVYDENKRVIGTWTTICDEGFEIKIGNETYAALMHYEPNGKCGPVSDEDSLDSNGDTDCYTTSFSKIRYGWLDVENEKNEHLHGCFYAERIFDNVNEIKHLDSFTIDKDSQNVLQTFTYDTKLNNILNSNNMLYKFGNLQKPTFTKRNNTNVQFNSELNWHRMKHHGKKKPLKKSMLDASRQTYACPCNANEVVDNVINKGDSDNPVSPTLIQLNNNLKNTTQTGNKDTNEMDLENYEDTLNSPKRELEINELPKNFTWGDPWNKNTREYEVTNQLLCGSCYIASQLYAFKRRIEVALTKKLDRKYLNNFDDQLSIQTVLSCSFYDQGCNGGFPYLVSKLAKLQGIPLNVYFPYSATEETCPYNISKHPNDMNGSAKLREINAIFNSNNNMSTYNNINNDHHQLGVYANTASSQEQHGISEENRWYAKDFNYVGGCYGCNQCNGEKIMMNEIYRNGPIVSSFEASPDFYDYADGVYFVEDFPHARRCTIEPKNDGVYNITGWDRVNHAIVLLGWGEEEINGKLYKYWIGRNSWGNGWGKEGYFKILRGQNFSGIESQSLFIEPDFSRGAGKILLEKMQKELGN

SMILES | % Inhibition @ 10 uM [%]
COC(=O)C1=C(C)N(C)C(C)=C(C(=O)OC)C1c1cc(Br)ccc1F | 0.238
Cc1ccc2nc(-c3ccc(S(=O)(=O)N4CCCCC4)cc3)cn2c1 | -3.57
O=C(O)C1C2c3ccccc3C(c3ccccc32)C1C(=O)Nc1ccc(Cl)cc1 (stereo not drawn) | 7.77
Cc1nnc(C)n1/N=C\c1cccc(O)c1 | 1.39
O=C(NCCc1ccccc1)c1ccc(NS(=O)(=O)c2ccccc2)cc1 | -2.03
O=C(c1ccc(F)cc1)N1CCN(c2ccc(F)cc2)CC1 | -3.27
CC[C@H](NC(=O)[C@@H](NC(=O)c1ccc(-c2ccccc2Cl)c(Cl)c1)C(C)C)C(=O)c1nc2ccccc2o1 | -6.56
Cc1cc(NC(=O)C2=Cc3sc4c(c3CS2)CCCC4)no1 | 6.01
O=C(Cc1cccc2ccccc12)Nc1ccc(S(=O)(=O)N2CCc3ccccc32)cc1 | 0.472
COc1cccc(CNC(=O)c2ccc(CS(=O)c3cccc(Cl)c3)o2)c1OC (stereo not drawn) | -9.24
CCc1ccc(S(=O)(=O)Nc2cc(SCC(=O)O)c(O)c3ccccc23)cc1 | 7.2
O=C(CCSc1nccn1Cc1ccccc1)N1CCOCC1 | -0.661
O=C(Nc1cccc([N+](=O)[O-])c1)C(C(=O)Nc1cccc([N+](=O)[O-])c1)C12CC3CC(CC(C3)C1)C2 | 3.58
Clc1ccccc1OCCCCCN1CCCC1 | -9.96
O=C(/C=C/c1ccccc1)Nc1nnc(-c2ccccc2F)s1 | -2.13
O=C(COc1ccccc1Cl)Nc1ccc2c(c1)C(=O)N(c1ccccc1)C2=O | -0.598
COc1ccc2nc(NC(=O)c3cc4ccc5cccnc5c4[nH]3)sc2c1 | -0.707
CC(C)Cn1c(=O)c2sccc2n2c(CCCC(=O)NCCC34CC5CC(CC(C5)C3)C4)nnc12 | -6.08
COc1ccc(C(=O)Nc2cccc(C(C)=O)c2)cc1OC | -3.23
O=C(Cc1ccc(-n2c(-c3ccccc3)nc3cccnc32)cc1)NCC1CCCO1 (stereo not drawn) | -5.54
COc1cccc(N(CC(=O)N2CCc3ccccc3C2)S(C)(=O)=O)c1 | -2.03

SMILES | % Inhibition @ 10 uM [%]
CN(C)CCN(Cc1ccccc1)Cc1cccc(Br)c1 | -5.2
COc1ccc(CCNS(=O)(=O)c2cn(C)nc2C)cc1 | 5.49
CC(C(=O)O)n1cnc2scc(-c3ccc(Cl)cc3)c2c1=O (stereo not drawn) | 3.25
COc1cccc(Cn2c(C)c(CNC3CCCC(C)C3C)c(C(=O)O)c2C)c1 (stereo not drawn) | -1.92
Cc1ccc(-c2noc(CCC(=O)NCCC(C)C)n2)cc1 | 5.1
O=C(/C=C\c1ccccc1)c1ccc(C(=O)/C=C\c2ccccc2)cc1 | -1.76
CCOC(=O)c1cc2sccc2[nH]1 | -2.84
OC1CCN(C2C3CC4CC(C3)CC2C4)CC1 (stereo not drawn) | -3.5
CCC(C(=O)N1CCOCC1)n1nc(C)c2sc3ccccc3c2c1=O (stereo not drawn) | -2.29
CCn1c2ccccc2c2cc(C(C)=O)ccc21 | -3.04
Cc1[nH]c2ccc(C(=O)OCCN(C)C)cc2c1C | 0.135
O=C(NCCc1nnc2ccc(NCC3CCCO3)nn12)c1ccccc1 (stereo not drawn) | -3.74
COCCN1C(=O)c2ccccc2C(C(=O)NC(C)C)C1c1c[nH]c2ccccc12 (stereo not drawn) | 1.86
CNC(=O)Cn1ncc2c3ccccc3n(Cc3ccccc3)c2c1=O | -1.58
Cc1cc(OCc2nc(-c3nonc3N)no2)cc(C)c1Cl | 7.97
Cc1c2n(c3ccccc13)CN(C)C(C)C2 (stereo not drawn) | -4.61
COc1ccccc1-c1noc(CCC(=O)NCc2ccco2)n1 | -4.02
CCn1c(C(=O)N2CCC(C(=O)N3CCN(C4CCCCC4)CC3)CC2)cc2sccc21 | -3.35
C=CCn1c(-c2cccc(C)c2)nc2ccccc21 | -2.28
COC(=O)c1cc2oc3ccccc3c2n1Cc1ccccc1F | 1.72
O=C(Nc1ccc(N2CCOCC2)cc1)C1CC(=O)N(c2ccc(Cl)cc2)C1 (stereo not drawn) | 14.3

SMILES | % Inhibition @ 10 uM [%]
CCN1C(=O)c2cccc3c(NC(=S)NC(=O)C45CC6CC(CC(C6)C4)C5)ccc1c23 | -2.56
N#CCNC(=O)C(Cc1cc(-c2ccccc2)c(O)c(-c2ccccc2)c1)NC(=O)c1ccc(N2CCOCC2)cc1 (stereo not drawn) | -1.61
CC(=O)OCC(=O)[C@@]1(O)CCC2C3CC[C@H]4CC(=O)CCC4(C)C3CCC21C (stereo partly drawn) | -0.687
Clc1ccccc1NCn1cnc2ccccc21 | -8.95
CCCCC(=O)C1=C(NC)CC(C)(C)CC1=O | 0.121
CCc1ccc(C(=O)NC2=NC(=O)CC(c3cccc(F)c3)N2)cc1 (stereo not drawn) | -3.44
CCOC(=O)c1c(S(=O)(=O)N2CCN(Cc3ccc4c(c3)OCO4)CC2)c(C)n(C)c1C | 2.58
CCN1CCN(c2ncnc3c2c(-c2ccccc2)cn3-c2cccc(C)c2)CC1 | -1.62
O=C(Nc1ccccc1C(=O)O)c1cc2ccccc2o1 | -2.37
COc1cc(C(=O)Nc2ccccc2Cl)cc(OC)c1OC | -3.34
CCCc1[nH]nc2c1C1(CCN(C(=O)c3ccccc3)CC1)C(C#N)=C(N)O2 | 7.04
O=C(CC1(O)C(=O)N(Cc2ccc(Cl)cc2)c2ccccc21)c1ccc(F)cc1 (stereo not drawn) | 5.77
CCn1c2ccccc2c2cc(CNc3ccc(C)cc3)ccc21 | 2.91
COc1cccc(C2C(C#N)=C(N)Oc3cc(C)n(Cc4cccnc4)c(=O)c32)c1OC (stereo not drawn) | -3.16
CCCN1CCN(C(=O)C2COc3ccccc3O2)CC1 (stereo not drawn) | -4.74
CCN1CCN(C(C)CC(C)(C)c2ccc(C)o2)CC1 (stereo not drawn) | 4.57
O=C(Nc1ccccc1NC(=O)c1ccc2c(c1)OCO2)c1ccc2c(c1)OCO2 | -3.45
Cc1c(C(=O)Nc2cc(-c3cccc(F)c3)no2)sc2nc3n(c(=O)c12)CCCCC3 | -0.205
CCOc1ccc(NC(=O)Nc2cccc3ccccc23)cc1 | -2.18
CC(C)NC(=O)Cn1ncc2c3ccccc3n(C)c2c1=O | -0.23
O=C(NCCC1=CCCCC1)c1ccc(CS(=O)(=O)c2ccc(Cl)cc2)o1 | -4.53
